Results on six molecules are retold here after US20240009173A1, “Use of 5-HT3-Targeting Drugs for Treatment of Acute Kidney Injury” (priority 2020, published 2024).

Assay [1] concerns AKI patients in ICU. As to conditions: slope of serum creatinine changes.
In assay [2] the test system is AKI patients in ICU. As to the kind of experiment: Logistic regression of in-ICU mortality of AKI patients (Example 2, Table 8). It counts as in vivo, human. As to conditions: ICU mortality of patients with AKI, negative = decreased mortality.
For assay [3], the system named is AKI patients in ICU. Put plainly: Validation in eICU database: propensity score matching on APS, chi-square test of ICU death rate (Example 1). The format is in vivo, human.
Where [4] appears, read: after PSM, 3,848 patients in group.

Consider `CC(=O)Oc1ccccc1C(=O)O` [Aspirin], for which the “effect on creatinine levels” value in the assay on AKI patients in ICU [1] is given as “no effect”.
As for `NS(=O)(=O)c1cc(C(=O)O)c(NCc2ccco2)cc1Cl` [Furosemide], in the assay with AKI patients in ICU [2], the “Estimate (regression coefficient)” value was “decrease the ICU mortality of AKI patients”.
The same measure, in the same setting: with `O=C(CCCN1CCC(O)(c2ccc(Cl)cc2)CC1)c1ccc(F)cc1` [Haloperidol] the entry was “decrease the ICU mortality of AKI patients”; with `NCCCC[C@H](N[C@@H](CCc1ccccc1)C(=O)O)C(=O)N1CCC[C@H]1C(=O)O` [Lisinopril], “decrease the ICU mortality of AKI patients”.
Same read-out and setting: with `COCCc1ccc(OCC(O)CNC(C)C)cc1` (stereo not drawn) [Metoprolol] the entry was “decrease the ICU mortality of AKI patients”.
For `Cc1nccn1CC1CCc2c(c3ccccc3n2C)C1=O` (stereo not drawn) [Ondansetron], the “time of maximum capability of decreasing creatinine level after administration” value in the assay with AKI patients in ICU [1] lay in the range of 2.5 to 4 h. Further, in the assay on AKI patients in ICU [3] (setting [4]), the “Alive (patients)” value is 3,369 and the “Death (patients)” value is on record as 479. Besides, in the assay with AKI patients in ICU [3] (after baseline APS adjustment by PSM, 3,848 patients per group), the death rate amounted to 12.45%.
